Results as given in PMC4336329 (PLoS ONE, 2015).
About 2,200 (0.71%) of roughly 310,000 compounds showed an effect of 50% or more. Effects have a minus sign here. This is one part of the list.

Biological target: human ether-à-go-go-related gene (hERG) potassium channel (human, UniProt Q12809)
Assay: primary screen, population patch clamp on CHO cells stably expressing hERG

human ether-à-go-go-related gene (hERG) potassium channel, sequence (Q12809 whole entry, looked up): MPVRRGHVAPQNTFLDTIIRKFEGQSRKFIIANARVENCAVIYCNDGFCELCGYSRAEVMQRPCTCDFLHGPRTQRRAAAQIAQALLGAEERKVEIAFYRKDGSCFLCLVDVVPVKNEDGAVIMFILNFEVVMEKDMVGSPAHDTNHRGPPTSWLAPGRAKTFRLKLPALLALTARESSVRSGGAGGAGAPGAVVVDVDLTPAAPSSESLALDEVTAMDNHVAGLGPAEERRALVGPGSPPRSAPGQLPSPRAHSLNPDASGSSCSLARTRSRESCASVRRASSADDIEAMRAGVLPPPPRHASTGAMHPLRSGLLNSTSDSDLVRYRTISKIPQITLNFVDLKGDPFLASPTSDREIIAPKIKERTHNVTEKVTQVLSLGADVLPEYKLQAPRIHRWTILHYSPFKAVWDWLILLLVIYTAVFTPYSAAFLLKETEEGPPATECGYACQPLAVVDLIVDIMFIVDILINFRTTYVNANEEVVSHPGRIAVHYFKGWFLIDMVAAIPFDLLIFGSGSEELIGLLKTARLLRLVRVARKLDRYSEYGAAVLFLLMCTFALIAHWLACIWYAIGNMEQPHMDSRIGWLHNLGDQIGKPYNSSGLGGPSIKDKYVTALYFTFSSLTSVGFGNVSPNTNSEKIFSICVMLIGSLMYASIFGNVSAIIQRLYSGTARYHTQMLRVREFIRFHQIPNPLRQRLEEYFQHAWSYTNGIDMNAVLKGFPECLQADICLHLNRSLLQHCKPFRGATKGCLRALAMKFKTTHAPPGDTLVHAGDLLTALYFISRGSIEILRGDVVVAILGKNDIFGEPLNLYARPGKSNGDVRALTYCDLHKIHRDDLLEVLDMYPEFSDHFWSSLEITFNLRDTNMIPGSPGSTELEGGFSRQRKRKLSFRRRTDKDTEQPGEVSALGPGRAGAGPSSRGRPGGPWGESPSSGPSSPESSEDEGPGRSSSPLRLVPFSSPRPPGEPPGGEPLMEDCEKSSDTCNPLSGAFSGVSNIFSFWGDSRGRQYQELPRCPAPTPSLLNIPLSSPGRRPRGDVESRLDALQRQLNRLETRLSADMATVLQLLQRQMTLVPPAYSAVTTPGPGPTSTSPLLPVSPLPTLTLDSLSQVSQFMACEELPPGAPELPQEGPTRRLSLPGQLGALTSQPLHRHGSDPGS

Row | Compound | hERG current change (%, negative = inhibition) at 1uM
1 | CC(C)(C)NC(=O)CN(C(=O)CNC(=O)c1cccs1)c1ccccc1F | 5.78%
2 | S=c1[nH]nc(Cc2ccc(Cl)cc2)o1 | 15.6%
3 | O=C1NCCCC1C(=O)N/N=C/c1ccccc1 (stereo not drawn) | -5.13%
4 | Cl.O=C(CNC1=NCCC1)c1ccc2c(c1)OCCO2 | 0.754%
5 | Cc1c(C(=O)NC2=NCCS2)cccc1[N+](=O)[O-] | 9.35%
6 | Cc1cc(C)nc(N2CCCC(C(=O)NCC(c3ccccc3)c3ccccc3)C2)n1 (stereo not drawn) | 7.6%
7 | CCN1C(=O)/C(=C/c2ccc(C)s2)NC1=S | 7.53%
8 | O=C(NCCc1ccc(F)cc1)c1coc(=O)c(Br)c1 | 13.8%
9 | COc1ccc(CNC(=O)c2ccccc2SC)cc1 | 7.29%
10 | CCOc1ccc(NC(=S)NCc2nc3ccccc3[nH]2)cc1 | -27.8%
11 | CCOc1cc(S(=O)(=O)N2CCC(C(N)=O)CC2)ccc1F | -8.34%
12 | Cc1ccc(S(=O)(=O)N(CC(O)CN2C(=O)NC(C)(C)C2=O)c2cccc(C)c2)cc1 (stereo not drawn) | 8.05%
13 | Cc1cccc(N2CCN(C(=S)Nc3ccc4nc5n(c(=O)c4c3)CCCCC5)CC2)c1C | 11.3%
14 | COCCCNC(=S)NNC(=O)Cn1nc(C)c(Br)c1C | 7.5%
15 | COc1ccc(CN2C(=O)C(Cc3ccccc3)Nc3ncnc(N4CCCCC4)c32)cc1.O=C(O)C(F)(F)F (stereo not drawn) | 9.9%
16 | O=C(N/N=C\c1cc(Br)c(Br)o1)C1COc2ccccc2O1 (stereo not drawn) | 13.9%
17 | COCCn1c(COc2ccc(Cl)cc2)nnc1SCC(N)=O | -2.07%
18 | COC(=O)c1ccc(=O)n(-c2ccc(OC)cc2)c1 | 17.9%
19 | Cc1ccc(S(=O)(=O)Nc2ccc(C(=O)OCC(=O)N(CCC#N)c3ccccc3)cc2)cc1C | 5.37%
20 | N#CC1=C(N)N(c2ccccc2)C(=O)C1 | 13.8%
21 | CCCN1C2CCCC1CC(NC(=O)c1ccccc1OC)C2 (stereo not drawn) | 10.2%
22 | O=C1NC2(CCCCCC2)N=C1c1ccc(F)cc1 | 6.3%
23 | COc1cccc(CN(C)C(=O)COc2ccc(C(=O)c3ccc(Cl)cc3)cc2)c1OC | 16.3%

Row | Compound | hERG current change (%, negative = inhibition) at 1uM
24 | CCOc1ccc(-n2c(SCC(=O)NCc3ccco3)nnc2-c2c[nH]c3ccccc23)cc1 | 10.3%
25 | COc1ccccc1NC(=O)Cn1cnc2sc(C)c(S(=O)(=O)N3CCCCC3)c2c1=O | 7.65%
26 | Cc1nn(Cc2ccccc2)c2ncccc12 | 19%
27 | O=C(c1ccc2nc[nH]c2c1)N1CCN(c2cccc(Cl)c2)CC1 | 9.92%
28 | O=C1C(Cl)=C(N2CCCCCC2)C(=O)N1c1ccccc1Cl | 8.34%
29 | O=C(O)CCCn1cc(NC(=O)c2ccc(Br)o2)cn1 | 4.77%
30 | CC(=O)Oc1ccc(C(c2ccc(OC(C)=O)cc2)c2ccccn2)cc1 | 8.98%
31 | CC(C(=O)O)n1c(-c2ccn[nH]2)n[nH]c1=S (stereo not drawn) | 15.5%
32 | CN1CCN(C(=O)CCN2C(=O)c3ccccc3S2(=O)=O)CC1.Cl | 5.71%
33 | CCOC(=O)c1cc2sc(C)cc2n1CC(=O)NCc1ccc(F)cc1 | 5.47%
34 | Cc1cc(Cl)ccc1C(=O)C1CCCN(C(=O)c2cccnc2C)C1 (stereo not drawn) | 0.0675%
35 | CC12CC3CC(C)(C1)CC(CN1CCOCC1)(C3)C2.Cl | 6.18%
36 | CC(C)C(=O)Nc1nc(-c2ccccc2)ns1 | 1.47%
37 | CCOC(=O)C1=NNC2(c3ccc(Cl)cc3)C(=O)N(c3cc(C)cc(C)c3)C(=O)C12 (stereo not drawn) | -6.75%
38 | CCOc1ccc(N(C(=O)c2ccc3c(c2)OCO3)C2C=CS(=O)(=O)C2)cc1 (stereo not drawn) | 3.02%
39 | CS(=O)(=O)Nc1ccc(N2CCN(c3ccc(C(F)(F)F)cn3)CC2)nc1 | 12.1%
40 | CS(=O)(=O)CC(=O)Nc1ccc2nc3n(c(=O)c2c1)CCCCC3 | 14.7%
41 | Cc1nc(-c2cc(-c3nc(-c4ccc(C(C)(C)C)cc4)no3)no2)cs1 | 11.5%
42 | COC(=O)Nc1ccc(S(=O)(=O)N2CCC(C(=O)NC3CCCCC3)CC2)cc1 | 9.76%
43 | Cc1c(C(=O)N2CCN(C)CC2)oc2ccc(S(=O)(=O)N3CCOCC3)cc12 | 12.9%
44 | CCOC(=O)c1cnc2ccc(C)cc2c1Sc1ccc(F)cc1 | 6.06%
45 | CCOc1ccc(N(CC(=O)Nc2ccccc2C(=O)N2CCCC2)S(C)(=O)=O)cc1 | 10.4%
46 | Cc1nc2cc(C(F)(F)F)ccc2n1C1CCN(Cc2nnnn2Cc2cccs2)CC1 | -2.78%

Row | Compound | hERG current change (%, negative = inhibition) at 1uM
47 | C(=C\c1ccccc1)/CNn1cnnc1 | 13.8%
48 | COc1ccc(NC(=O)CSc2ccc3nnc(CCNC(=O)c4ccccc4)n3n2)cc1 | 16%
49 | Nc1nc(C(F)(F)F)c(Br)c(=O)n1N | 13.4%
50 | Cc1c(NC(=O)CSc2nccn2C)c(=O)n(-c2ccccc2)n1C | 13.2%
51 | Nc1c(C(=O)NCc2ccccc2)nnn1Cc1ccccc1 | 18.4%
52 | Cc1ccc(C)c(-n2c3nc(=O)n(C)c(=O)c-3cc3ccccc32)c1 | 11.4%
53 | Cn1c(=O)c2c(ncn2CC(=O)N/N=C/C=C/c2ccccc2)n(C)c1=O | 7.44%
54 | NS(=O)(=O)c1ccc(NC(=O)COC(=O)CSc2n[nH]c(-c3ccccc3)n2)cc1 | 12.5%
55 | Cc1ccccc1-c1nc(C#N)c(NCc2ccco2)o1 | -13.9%
56 | c1csc(CSc2nc3ccccc3s2)c1 | 13.4%
57 | CCc1ccc2c(CN3CCN(S(=O)(=O)c4cccs4)CC3)cc(=O)oc2c1 | -0.807%
58 | COc1ccc(-c2nnn(CC(=O)NCCc3ccc(OC)c(OC)c3)n2)cc1 | 12.3%
59 | CC(=O)Nc1ccc(NC(=O)C(C)OC(=O)/C(C#N)=C/c2ccc(N(C)C)cc2)cc1 (stereo not drawn) | 2.57%
60 | O=C(c1cccs1)N1CCN(C(=O)N2CCOCC2)CC1 | 15.2%
61 | CCOc1ccc2nc(NCCNC(=S)NCCCN(C)C)c(C#N)cc2c1 | -3.65%
62 | O=C(O)C1SCCN1S(=O)(=O)c1ccc(N=NN2CCOCC2)cc1 (stereo not drawn) | 8.42%
63 | O=C1OCC/C1=C\OCCCO/C=C1\CCOC1=O | 14.3%
64 | O=C(N/N=C/c1sc2ccccc2c1O)c1ccccc1 | 5.08%
65 | COc1ccc(C2CC(c3cccs3)=NN2C(=O)CN2CCCCC2)cc1 (stereo not drawn) | -27.7%
66 | Cc1oc(-c2cccs2)nc1CN1CCN(CC(C)C)C(CCO)C1 (stereo not drawn) | 6.6%
67 | COc1ccc2c(CC(=O)OCC(=O)Nc3cc(C)c(C)cc3[N+](=O)[O-])coc2c1 | 6.23%
68 | COc1ccc2c(c1)CC1(CN2C)C(=O)NC(=O)N(c2ccc(C)cc2)C1=O (stereo not drawn) | 12.1%
69 | CC(OC(=O)C(C)Oc1ccccc1)C(=O)Nc1ccc(S(=O)(=O)N2CCCCC2)cc1 (stereo not drawn) | 12.9%

Row | Compound | hERG current change (%, negative = inhibition) at 1uM
70 | O=C(NCC(=O)N(Cc1cccs1)C(C(=O)NC1CCCC1)c1ccco1)c1cccs1 (stereo not drawn) | 13.6%
71 | COc1ccc(CCN2C(=O)CN=C2Nc2ccc(F)cc2)cc1OC | 7.26%
72 | Cc1ncc([N+](=O)[O-])n1CC(=O)NCCc1ccccc1 | 10.8%
73 | COCC(=O)N1CCCc2ccccc21 | 1.28%
74 | Cc1ccc(Cl)cc1N1CCN(S(=O)(=O)c2cnc[nH]2)CC1 | 1.64%
75 | Cl.NC(CCCCc1ccccc1)c1cccc2ccccc12 (stereo not drawn) | 12.9%
76 | COc1ccc(C(=O)CCS(=O)(=O)c2ccc(C)cc2)cc1OC | 8.44%
77 | COC(=O)C(O)(c1ccc(NC(=O)c2cccs2)c(C)c1)C(F)(F)F (stereo not drawn) | 13.2%
78 | CCN(CC)C(=O)c1sc2nc(-c3ccc(OC)cc3)cn2c1C | 4.72%
79 | COCCNc1nc(-c2ccccc2)nc2c1oc1ccccc12.Cl | 10.4%
80 | NNC(=O)CN1CCCc2ccccc21 | 18.3%
81 | Cc1ccc(C(=O)N2CCCC(c3nc4c(nnn4Cc4ccccc4)c(=O)[nH]3)C2)cc1 (stereo not drawn) | -21.9%
82 | N/C(=N\OC(=O)N1c2ccccc2Sc2ccccc21)c1ccc(Br)cc1 | -3.59%
83 | O=C(c1ccccc1)N(Nc1ccccc1)c1ccccc1 | 12.1%
84 | C/C(=N/NS(=O)(=O)c1ccc(C)cc1)c1c[nH]c2ccccc12 | 12.1%
85 | O=C(Nc1ccc(N2CCOCC2)cc1)c1nc2ccccc2s1 | 3.45%
86 | Cc1cccc(CS(=O)(=O)Cc2ccc(C(=O)NC(C)c3ccccc3)o2)c1 (stereo not drawn) | 11.1%
87 | Cc1ccc(-c2csc3ncnc(SCC(=O)NCc4ccc5c(c4)OCO5)c23)cc1 | 7.69%
88 | Cc1ccc(-n2cccc2/C=N/n2cnnc2)cc1Cl | 6.56%
89 | CC(=C/c1ccccc1)/C=N/N1CCN(Cc2ccc(C)cc2)CC1 | 12.6%
90 | Cc1ccc(S(=O)(=O)Cn2nnnc2C(CC(C)C)N2CCC(C(N)=O)CC2)cc1 (stereo not drawn) | 6.43%
